Laboratory results as given in PubChem BioAssay AID651820 (National Center for Advancing Translational Sciences (NCATS), 2012).
The whole screen tested about 340,000 compounds, of which about 12,000 (3.5%) were called active. The inconclusive results got no clear call from the source; some entries with a clear call stand among them for comparison. The call rests on the fitted dose curve; in most records, active means well fitted inhibition curve with a large enough effect; inconclusive means small, poorly fitted or top-dose-only effect, or another doubt; inactive means no such curve, though single readings can be large or run the other way. No potency is given beside an inconclusive call; the fits are too rough.

test: qHTS Assay for Inhibitors of Hepatitis C Virus (HCV); details: Huh7.5.1 HCVcc-Cre (HCVcc is cell-culture hepatitis C virus) infection, luciferase reporter, 44 h; series mostly up to 41.8 µM
Method in brief: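 Cells (1,000/well) were plated 4 h before compound, then infected with HCVcc-Cre virus (~0.5 moi). After 44 h further culture, infection was read as luciferase luminescence following a 15 min substrate incubation at room temperature.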
Potency means the concentration at half of the fitted maximal effect; tags describe the fitted curve by direction and shape.

SMILES | Potency
C/C(=N\NC(=S)Nc1ccc(C)c(C)c1)c1ccc(N2CCOCC2)cc1 | inconclusive [inhibitor, single point]
CCC1CN(C(=O)NCc2ccc(F)cc2)c2cc(Cl)ccc2O1 (stereo not given) | inconclusive [inhibitor, partial curve, poor fit]
COc1ccc(NS(=O)(=O)c2cccc(C(=O)NNC(=O)CNC(=O)c3ccc(C)cc3)c2)cc1 | inactive
CCOc1ccc2[nH]c(=O)c(CN(CC3COCCO3)C(=O)C3CC3)cc2c1 (stereo not given) | inconclusive [inhibitor, partial curve]
O=C(CSc1ncn[nH]1)Nc1ccccc1Sc1ccc(Cl)cc1 | inconclusive [inhibitor, single point]
CC(C)Cc1[nH]c(=O)c(C#N)c2c1COC(C)(C)C2 | inactive
O=C1CC[C@H](O)CCN1[C@H](CSc1ccc(Br)cc1)Cc1ccccc1 | inconclusive [inhibitor, partial curve]
O=C(NC1CCCC1)C(c1cccs1)N(Cc1ccco1)C(=O)Cn1nnc(-c2cccs2)n1 (stereo not given) | inconclusive [inhibitor, single point]
CCCOc1c(Br)cc(C2C3=C(CCCC3=O)N(CC)C3=C2C(=O)CCC3)cc1OC | inactive
COc1ccc(N2CCN(C3CCCN(Cc4ccc(F)c(F)c4)C3)CC2)cc1 (stereo not given) | inconclusive [inhibitor, single point]
CC(OC(=O)/C(C#N)=C/c1ccc(N(C)C)cc1)C(=O)N(C)Cc1ccccc1 (stereo not given) | inconclusive [inhibitor, partial curve]
CC(C)CC1NC(=O)N(Cc2nc3ccccc3s2)C1=O (stereo not given) | inactive
O=C(Nc1ccccc1)C1=C[C@H](C2CC2)C[C@H](OCCCCO)O1 | inactive
CCn1nnnc1NCc1ccc(OCc2ccc(F)cc2Cl)c(OC)c1 | inconclusive [inhibitor, full curve, poor fit]
CCNS(=O)(=O)c1ccc(CCC(=O)NCCc2ccc(OC)cc2)cc1 | inconclusive [inhibitor, single point]
COc1ccc(CC(=O)NNc2ncnc3c2cnn3-c2ccc(C)cc2)cc1OC | inconclusive [inhibitor, full curve]
O=C(CCNS(=O)(=O)c1cccc2nsnc12)N1CCc2ccccc21 | inactive
CCOc1cc(/C=N/NC(=O)c2cc(C)n(-c3ccc(F)cc3)c2C)ccc1O | inconclusive [inhibitor, partial curve]
CCOc1ccc2nc(NCCCNC(=O)c3cc(OC)c(OC)c(OC)c3)c(C#N)cc2c1 | inconclusive [inhibitor, partial curve]
CCOC(=O)C1=C(C)N=C2SC(C)C(=O)N2C1/C=C/c1ccccc1OC (stereo not given) | inconclusive [inhibitor, single point]
C[C@H]1c2cccc(O)c2C(O)=C2C(=O)[C@]3(O)C(O)=C(C(N)=O)C(=O)[C@@H](N(C)C)C3[C@@H](O)C21 (stereo not given in full) | inactive
N#Cc1ccccc1COC(=O)c1cccc(S(=O)(=O)N2CCCC2)c1 | inconclusive [inhibitor, single point]

SMILES | Potency
COc1ccc(NC(=O)CN(C)C(=O)c2ccc(OCc3ccccc3)c(OC)c2)cc1 | inactive
CCN(CC)S(=O)(=O)c1ccc(Cc2ncc(C(F)(F)F)cc2Cl)s1 | inconclusive [inhibitor, single point]
Fc1ccc(C(c2nnnn2Cc2cccs2)N2CCN(c3ccccc3)CC2)cc1 (stereo not given) | inconclusive [inhibitor, partial curve, poor fit]
Cc1ccc(C2CCN(C(=S)NC(C)(C)C)C2)cc1 (stereo not given) | inconclusive [inhibitor, single point]
Nc1nnnn1/N=C/c1ccccc1OCc1ccc(Cl)cc1 | inconclusive [inhibitor, full curve]
NS(=O)(=O)c1ccc(NC(=S)Nc2nn(Cc3ccc(Cl)cc3Cl)cc2Cl)cc1 | inconclusive [inhibitor, partial curve]
CCO[C@H]1OC(C(=O)N2CCN(Cc3ccc4c(c3)OCO4)CC2)=C[C@@H](c2cn(C(C)=O)c3ccccc23)[C@@H]1CCCO | inconclusive [inhibitor, single point]
O=C(CNC(=O)c1ccc(Cl)cc1Cl)OC1CCCCC1=O (stereo not given) | inactive
Cc1ccc2nc3c(cc(C(=O)NC4CCS(=O)(=O)C4)n3Cc3ccccc3)c(=O)n2c1 (stereo not given) | inconclusive [inhibitor, partial curve]
CC12CCC(=O)N1C(C(=O)N1CCN(S(=O)(=O)c3cccc(C(F)(F)F)c3)CC1)CS2 (stereo not given) | inactive
COc1ccccc1NS(=O)(=O)c1cc(NC(=S)Nc2cc(C)cc(C)c2)ccc1Cl | inconclusive [inhibitor, partial curve]
COc1cc(CCC(=O)NNC(=O)c2cccc(Cl)c2)cc(OC)c1OC | inactive
CC(C)CC(=O)Nc1ccc(Oc2ccc3c(c2)C(=O)NC3=O)cc1 | inactive
O=C(c1ccc(F)cc1)N1CCN(c2cnn(-c3ccccc3)c(=O)c2Cl)CC1 | inconclusive [inhibitor, single point]
CC1Sc2ccc(S(=O)(=O)CCC(=O)N3CCN(c4ccccc4F)CC3)cc2NC1=O (stereo not given) | inconclusive [inhibitor, single point]
CN(CCC(=O)Nc1ccc(Br)cc1)Cc1ccccc1 | inconclusive [inhibitor, partial curve]
O=C(COc1cccc(F)c1)N[C@@H](Cc1ccccc1)c1nc2ccccc2[nH]1 | inconclusive [inhibitor, single point]
O=C(c1cc2cc(Br)ccc2o1)N1CCN(c2ccccc2)CC1 | inconclusive [inhibitor, full curve]
C/C=C(\C)C(=O)OC1[C@H](OC(C)=O)C2(CO)C(CC1(C)C)C1=CCC3C4(C)CCC(O[C@@H]5O[C@H](C(=O)O)[C@@H](O[C@@H]6O[C@H](CO)[C@@H](O)[C@H](O)[C@H]6O)[C@H](O)[C@H]5O[C@H]5O[C@H](CO)[C@@H](O)[C@H](O)[C@H]5O)[C@](C)(CO)C4CCC3(C)[C@]1(C)C[C@H]2O (stereo not given in full) | active: 3.16 µM
Cc1ncc(CN2CCCC(C(=O)c3cccc(OC(C)C)c3)C2)s1 (stereo not given) | inconclusive [inhibitor, single point]
O=S(=O)(Cc1ccco1)Cc1nc(-c2ccc(Cl)cc2)cs1 | inconclusive [inhibitor, single point]
CCC1CCCCN1C(=O)COC(=O)c1cccs1 (stereo not given) | inactive

SMILES | Potency
CCCCN(C(=O)c1ccc(-c2ccc([N+](=O)[O-])cc2)o1)c1c(N)n(CC(C)C)c(=O)[nH]c1=O | inconclusive [inhibitor, single point]
COc1ccc(CNC(NC(=O)c2ccccc2)(C(F)(F)F)C(F)(F)F)cc1 | inconclusive [inhibitor, single point]
Cc1c(C(=O)NC(=S)Nc2ccccc2N2CCCC2)cccc1[N+](=O)[O-] | active: 3.55 µM
CN(CC(O)Cn1cnc2c1c(=O)n(C)c(=O)n2C)c1ccccc1 (stereo not given) | inconclusive [inhibitor, single point]
Cc1sc2nc(SCC(=O)Nc3c(C)n(C)n(-c4ccccc4)c3=O)n(C)c(=O)c2c1C | inactive
CCCCC(=O)Nc1ccc(C)c(S(=O)(=O)N2CCCCCC2)c1 | inconclusive [inhibitor, single point]
Cc1cc(C)nc(NS(=O)(=O)c2ccc(N/C=C3\CCCC3=O)cc2)n1 | inactive
COc1ccccc1OCC(=O)N/N=C1\CCCCc2ccccc21 | inactive
Cc1ccc(-n2nnnc2Sc2nc([N+](=O)[O-])nn2C)cc1C | inactive
Cn1nc([N+](=O)[O-])nc1Sc1cccc2cccnc12 | inconclusive [inhibitor, single point]
N#Cc1c(N2CCCC2)ccc(Br)c1Cl | inconclusive [inhibitor, single point]
COc1ccc(Cl)cc1NC(=O)CN(C)CC(=O)Nc1ccccc1C(F)(F)F | inactive
COc1ccc(NS(=O)(=O)c2cccc(NC(=O)C34CCC(CC3)C4)c2)cc1 | inconclusive [inhibitor, partial curve]
CCn1c(CNC(=O)COc2ccc(C(C)C)cc2)nnc1SCC(=O)Nc1ccccc1C(C)C | inconclusive [inhibitor, single point]
O=C(CCCC(=O)N1CCCC1)N1CCCC1 | inactive
Cc1ccc(S(=O)(=O)Nc2cc(-c3nn(C)c(=O)c4ccccc34)ccc2N2CCOCC2)cc1 | inconclusive [inhibitor, partial curve]
CCOC(=O)CSc1nc2c(sc(=S)n2-c2ccccc2OC)c(=O)n1Cc1ccco1 | active: 2.82 µM
O=c1cc(CSc2nnc(Nc3ccccc3F)s2)nc2sccn12 | inconclusive [inhibitor, single point]
COc1ccc(NC(=O)CN(C)CC(=O)Nc2ccccc2SC)cc1Cl | inconclusive [inhibitor, single point]
COc1ccc2ccc3cccc[n+]3c2c1 | inconclusive [inhibitor, partial curve]
CCC(CO)Oc1cc(NCc2ccccc2C)c2ncn(C(C)C)c2c1 (stereo not given) | inconclusive [inhibitor, full curve, poor fit]
